The values that follow come from US20240141039A1 (AGENUS, published 2024).

The target of assay [1] is T1, full-length isoform 2 ECD of human CD96 with a C89S mutation (His-tagged) (human, UniProt P40200 22-519).
T1 construct: also called His-tagged isoform 2 of human CD96 with a C89S mutation; human CD96 extracellular domain isoform 2 C89S
T1 sequence: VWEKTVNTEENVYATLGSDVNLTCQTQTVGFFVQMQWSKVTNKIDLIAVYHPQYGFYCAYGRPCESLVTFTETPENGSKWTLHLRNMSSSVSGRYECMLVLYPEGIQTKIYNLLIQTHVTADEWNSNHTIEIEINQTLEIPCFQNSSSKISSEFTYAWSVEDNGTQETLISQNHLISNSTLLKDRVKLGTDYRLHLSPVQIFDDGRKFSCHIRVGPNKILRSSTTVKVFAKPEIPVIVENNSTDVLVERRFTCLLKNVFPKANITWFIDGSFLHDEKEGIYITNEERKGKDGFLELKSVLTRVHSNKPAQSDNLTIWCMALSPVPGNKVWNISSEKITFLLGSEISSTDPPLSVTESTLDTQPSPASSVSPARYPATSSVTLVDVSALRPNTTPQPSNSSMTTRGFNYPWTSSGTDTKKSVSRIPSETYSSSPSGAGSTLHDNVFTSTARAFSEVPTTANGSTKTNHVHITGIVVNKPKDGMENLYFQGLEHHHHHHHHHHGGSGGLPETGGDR
Nature of the assay: SPR Biacore T200, geomean of experiments #1 and #2. Here is the method: (§1) Briefly, surface plasmon resonance experiments were performed using a Biacore T200 instrument, and the association rate (kₐ), dissociation rate (kd), and dissociation constant (KD) were calculated from each experiment using a 1:1 binding model with Biacore T200 Evaluation Software.
(§2) The sensor chip was regenerated between cycles with two 30-sec injections of 10 mM glycine, pH 1.5. Sensorgrams were evaluated and fit to a simple Langmuir 1:1 interaction model using the global data analysis option of BIAevaluation 3.0 software. Data quality was verified by visually inspecting deviations and curve fitting, and by evaluating the parameters of Rₘₐₓ, Chi2, and Tc.

Assay [2] concerns the target T1, full-length isoform 2 ECD of human CD96 …. Nature of the assay: SPR Biacore T200, Protein A capture, 1:1 model, experiment #1. How it is done:
as §1, §2
(Surface plasmon resonance follows binding to a sensor surface in real time, without labels.)

The target is the same in assay [3]. Nature of the assay: SPR Biacore T200, Protein A capture, 1:1 model, experiment #2. Here is the method:
as §1, §2

Assay [4] deals with T2, wild type full-length human CD96 isoform 2 expressed on CHO cells (human, UniProt P40200-2 22-569).
T2 construct: whole, on cells; also called human CD96-CHO (isoform 2); human CD96 (iso2) CHO cells
T2 sequence (looked up): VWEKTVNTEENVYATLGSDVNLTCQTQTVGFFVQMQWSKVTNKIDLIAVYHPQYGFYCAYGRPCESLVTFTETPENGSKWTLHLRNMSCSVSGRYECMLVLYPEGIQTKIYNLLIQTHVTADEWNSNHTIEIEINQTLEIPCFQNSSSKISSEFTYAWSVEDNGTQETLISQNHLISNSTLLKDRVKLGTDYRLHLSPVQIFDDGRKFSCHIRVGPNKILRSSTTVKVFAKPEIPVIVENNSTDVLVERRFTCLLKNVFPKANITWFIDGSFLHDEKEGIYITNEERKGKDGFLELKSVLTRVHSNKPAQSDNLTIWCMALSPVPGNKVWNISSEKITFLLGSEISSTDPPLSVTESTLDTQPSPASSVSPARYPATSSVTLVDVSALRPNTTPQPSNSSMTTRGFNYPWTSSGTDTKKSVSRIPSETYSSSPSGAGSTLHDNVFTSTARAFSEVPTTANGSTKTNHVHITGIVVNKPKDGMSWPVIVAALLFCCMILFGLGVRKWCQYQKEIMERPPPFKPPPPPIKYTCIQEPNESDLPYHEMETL
Nature of the assay: flow cytometry, human CD96 (isoform 2) CHO cells, geomean of 2 experiments. How it is done:
(§3) Cells were centrifuged at 300 g for five minutes. The supernatant was discarded, and cells resuspended in FACS buffer were seeded in a 96-well U-bottom tissue culture plate at a density of 2×10⁵ cells per well in 50 μL. In a separate microplate, a 2× concentrated intermediate stock of each antibody was prepared. Antibodies were serially diluted 1-to-4 in FACS buffer. A total of 11 working dilutions ranging from 60 μg/mL to 0.000057 μg/mL were prepared. Fifty microlitres of each dilution were then transferred to the microplate containing human CD96-CHO cells. The cells were then incubated for 45 minutes at 4° C. […] After a 30-minute incubation on ice, the cells were washed twice with cold FACS Buffer, and the cells were analyzed by flow cytometry (BD LSR Fortessa Flow Cytometer). The data were analyzed using the FlowJo software by sequentially gating the FSC-A vs. SSC-A, and SSC-H vs. SSC-A. Mean fluorescence intensity (MFI) values for PE were calculated, and the data were plotted by GraphPad Prism software.
(A flow cytometer gives signals particle by particle.)

The target in assay [5] is T2, wild type full-length human CD96 …. Nature of the assay: flow cytometry, blocking of human CD155-Fc-PE binding to CHO cells expressing human CD96 isoform 2. How it is done: (§4) A 4× concentrated intermediate stock of each antibody was prepared in a microplate. Antibodies were serially diluted 1-to-4 in FACS buffer. […] After a 30-minute incubation on ice, the cells were washed twice with cold FACS Buffer, and the cells were analyzed by flow cytometry (BD LSR Fortessa Flow Cytometer). The data were analyzed using the FlowJo software by sequentially gating on the FSC-A vs. SSC-A and SSC-H vs. SSC-A. Mean fluorescence intensity (MFI) values for PE were calculated, and the data were plotted by GraphPad Prism software and analyzed as described above.

Assay [6] deals with CD4+ T cells (CD3-stimulated; Day 4). Nature of the assay: flow cytometry on activated primary human T cells, gated CD4+, donor 1; PE anti-human IgG detection.
Assay [7] shares this target. Nature of the assay: flow cytometry on activated primary human T cells, gated CD4+, donor 2; PE anti-human IgG detection.
Assay [8] has as its target CD8+ T cells (CD3-stimulated; Day 4). Nature of the assay: flow cytometry on activated primary human T cells, gated CD8+, donor 1; PE anti-human IgG detection.
The target of assay [9] is T2, wild type full-length human CD96 …. Nature of the assay: flow cytometry, blocking of CD155-Fc-PE binding to human CD96 (isoform 2) CHO cells, geomean of 3 experiments. How it is done: as §4
The target in assay [10] is T3, full-length isoform 2 ECD of cynomolgus monkey CD96 (His-tagged) (cynomolgus monkey).
T3 construct: also called His-tagged isoform 2 of cynomolgus monkey CD96; cyno CD96 extracellular domain isoform 2
T3 chain: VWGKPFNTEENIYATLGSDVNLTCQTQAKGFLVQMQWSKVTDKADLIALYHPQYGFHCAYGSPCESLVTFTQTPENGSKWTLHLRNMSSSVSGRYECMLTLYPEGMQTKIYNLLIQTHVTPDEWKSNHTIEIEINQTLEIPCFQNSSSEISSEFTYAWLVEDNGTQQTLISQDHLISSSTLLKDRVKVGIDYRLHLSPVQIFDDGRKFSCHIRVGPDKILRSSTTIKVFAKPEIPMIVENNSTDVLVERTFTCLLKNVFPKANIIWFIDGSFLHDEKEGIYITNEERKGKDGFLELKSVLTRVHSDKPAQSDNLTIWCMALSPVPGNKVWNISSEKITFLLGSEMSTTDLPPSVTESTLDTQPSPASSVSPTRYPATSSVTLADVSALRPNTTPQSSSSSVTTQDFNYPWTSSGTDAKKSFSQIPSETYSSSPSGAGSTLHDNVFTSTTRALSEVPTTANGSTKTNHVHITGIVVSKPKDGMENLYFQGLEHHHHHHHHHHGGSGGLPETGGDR
Nature of the assay: SPR Biacore T200, geomean of experiments #1 and #2. Here is the method:
as §1
(§5) The sensor chip was regenerated between cycles with two 30-sec injections of 10 mM glycine, pH 1.5. Sensorgrams were evaluated and fit to a simple Langmuir 1:1 interaction model using the global data analysis option of BIAevaluation 3.0 software.

The target of assay [11] is T3, full-length isoform 2 ECD of cynomolgus …. Nature of the assay: SPR Biacore T200, Protein A capture, 1:1 model, experiment #1. How it is done: as §1, §5
For assay [12] the target is unchanged. Nature of the assay: SPR Biacore T200, Protein A capture, 1:1 model, experiment #2. How it is done: as §1, §5
The target in assay [13] is T4, wild type full-length cynomolgus monkey CD96 isoform 2 expressed on CHO cells (cynomolgus monkey, UniProt A0A2K5TWV6 22-569).
T4 construct: whole, on cells; also called cynomolgus CD96-CHO cells; cynomolgus CD96-CHO (isoform 2)
T4 sequence: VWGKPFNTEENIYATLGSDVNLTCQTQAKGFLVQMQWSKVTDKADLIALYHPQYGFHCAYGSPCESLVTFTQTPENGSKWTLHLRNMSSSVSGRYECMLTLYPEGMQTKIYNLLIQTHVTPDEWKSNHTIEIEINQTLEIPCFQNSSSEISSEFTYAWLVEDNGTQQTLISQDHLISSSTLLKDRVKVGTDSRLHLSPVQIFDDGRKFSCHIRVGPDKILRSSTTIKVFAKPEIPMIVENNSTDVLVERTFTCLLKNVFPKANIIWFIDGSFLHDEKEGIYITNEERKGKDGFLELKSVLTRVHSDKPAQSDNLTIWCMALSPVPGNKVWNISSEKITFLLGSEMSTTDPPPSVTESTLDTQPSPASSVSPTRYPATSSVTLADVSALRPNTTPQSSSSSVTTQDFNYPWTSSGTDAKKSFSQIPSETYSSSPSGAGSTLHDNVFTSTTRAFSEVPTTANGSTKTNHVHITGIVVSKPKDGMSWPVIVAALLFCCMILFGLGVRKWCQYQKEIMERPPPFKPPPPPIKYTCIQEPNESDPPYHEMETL
Nature of the assay: flow cytometry, cynomolgus CD96 (isoform 2) CHO cells, geomean of 2 experiments. How it is done:
as §3

The target in assay [14] is T2, wild type full-length human CD96 …. Nature of the assay: flow cytometry on CHO cells expressing human CD96 isoform 2, PE anti-human IgG Fc detection. Here is the method: as §3
The target of assay [15] is T4, wild type full-length cynomolgus monkey …. Nature of the assay: flow cytometry, blocking of CD155-Fc-PE binding to cynomolgus CD96 (isoform 2) CHO cells, geomean of 3 experiments. How it is done: IC50 values were calculated using GraphPad Prism software by curve fitting using a four-parameter logistic equation.

B1: anti-CD96 monospecific antibody BA143 (antibody, human IgG1, kappa)
heavy: QVQLVQSGAEVKKPGASVKVSCKASGYTFTTYALHWVRQAPGQRLEWMGWINTGSGDTKYSQKFQGRVTITRDTSASTAYMELSSLRSEDTAVYYCARSLGVYYGMDVWGQGTLVTVSSASTKGPSVFPLAPSSKSTSGGTAALGCLVKDYFPEPVTVSWNSGALTSGVHTFPAVLQSSGLYSLSSVVTVPSSSLGTQTYICNVNHKPSNTKVDKRV[in this place human IgG1 Fc]
light: [in this place about 100 residues][in this place about 120 residues]
Take B1: the dissociation constant Kd in assay [1], in [2] and in [3] was 13.3 nM each time. In addition, the values for the koff in [2] and in [3] were 0.000583 s⁻¹ and 0.000572 s⁻¹, respectively. Also, the kon – broadly, a measure of how fast the partners come together – in [2] stood at 44000 M⁻¹ s⁻¹; in assay [3], 43100 M⁻¹ s⁻¹. The EC50 (in general, the concentration that produces a half-maximal response) in assay [4] turned out to be 0.0059 µg/mL. Further, the “IC50 (read off the curve)” value in [5] was about 0.2 µg/mL. Moreover, the EC50 (read off the curve) (usually the concentration giving half of the maximal effect) in [6] is about 0.02 µg/mL; in assay [7] it was about 0.006 µg/mL; in assay [8], about 0.01 µg/mL. Further, in assay [9], the IC50 (commonly the point on the concentration scale where inhibition reaches its midpoint) was 0.152 µg/mL.

B2: anti-CD96 monospecific antibody BA145 (antibody, human IgG1, kappa)
heavy: QVQLVQSGAEVKKPGASVKVSCKASGYTFTSYGISWVRQAPGQGLEWMGWISAYNANTNYAQKLQGRVTMTTDTSTSTAYMELRSLRSDDTAVYYCARSAGVLGGMDVWGRGTLVTVSSASTKGPSVFPLAPSSKSTSGGTAALGCLVKDYFPEPVTVSWNSGALTSGVHTFPAVLQSSGLYSLSSVVTVPSSSLGTQTYICNVNHKPSNTKVDKRV[in this place human IgG1 Fc]
light: EIVMTQSPATLSVSPGERATLSCRASQSVNAYLAWYQQKPGQAPRLLIYGASTRATGIPARFSGSGSGTEFTLTISSLQSEDFAVYYCQQYNNWPSFGQGTKLEIKRTVAAPSVFIFPPSDEQLKSGTASVVCLLNNFYPREAKVQWKVDNALQSGNSQESVTEQDSKDSTYSLSSTLTLSKADYEKHKVYACEVTHQGLSSPVTKSFNRGEC
In the case of B2, the Kd (as a rule, the constant that tells how readily two partners part at equilibrium) is 80 nM in [1]; 86.2 nM in [10]; 89.1 nM in assay [2]; 71.8 nM in assay [3]; 92.3 nM in assay [11]; 80.5 nM in [12]. Besides, the koff (usually the rate constant with which the complex falls apart) in assay [2] was found to be 0.00105 s⁻¹; in assay [3], 0.000907 s⁻¹; in [11], 0.00616 s⁻¹; in assay [12], 0.00584 s⁻¹. Further, the kon in [2] is 11800 M⁻¹ s⁻¹; in [3] it was 12600 M⁻¹ s⁻¹; in assay [11], 66800 M⁻¹ s⁻¹; in assay [12], 72600 M⁻¹ s⁻¹. For the same molecule, the EC50 in [4] stood at 0.0267 µg/mL; in assay [13], 1.05 µg/mL. In addition, in assay [14], the “EC50 (read off the curve)” value is about 0.04 µg/mL. Moreover, in assay [5], the “IC50 (read off the curve)” value was about 0.5 µg/mL. Besides, the IC50 in assay [9] stood at 0.542 µg/mL; in [15] it was 0.795 µg/mL.
